In PubChem BioAssay AID360 (National Center for Advancing Translational Sciences (NCATS), 2006):
Among all 48,000 compounds or so, about 550 (1.1%) were called active. Not shown: some 4% with an inconclusive outcome. Cut-off read from the data, not from the text of the source: active = potency below about 15 µM; inconclusive = mostly about 16 µM to 33 µM; inactive = weaker than that. This is one part of the list.

Molecular target: Lysosomal acid glucosylceramidase (Homo sapiens) (UniProt P04062)
Experiment: Glucocerebrosidase;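 note: the screen sought inhibitors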
Conditions: purified enzyme, resorufin glucoside fluorescence (screen aimed at inhibitors), 20 min
How it was run: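 Compounds titrated against 0.2 nM normal enzyme, 30 uM resorufin beta-D-glucopyranoside substrate, citrate/phosphate buffer with taurocholate and tween-20, pH 5.9. Reaction ran 20 min at room temperature; fluorescence (Ex 548/Em 600) gave AC50.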
Potency is the fitted concentration of half-maximal effect.

Sequence of UniProt P04062 (P04062 whole entry, looked up): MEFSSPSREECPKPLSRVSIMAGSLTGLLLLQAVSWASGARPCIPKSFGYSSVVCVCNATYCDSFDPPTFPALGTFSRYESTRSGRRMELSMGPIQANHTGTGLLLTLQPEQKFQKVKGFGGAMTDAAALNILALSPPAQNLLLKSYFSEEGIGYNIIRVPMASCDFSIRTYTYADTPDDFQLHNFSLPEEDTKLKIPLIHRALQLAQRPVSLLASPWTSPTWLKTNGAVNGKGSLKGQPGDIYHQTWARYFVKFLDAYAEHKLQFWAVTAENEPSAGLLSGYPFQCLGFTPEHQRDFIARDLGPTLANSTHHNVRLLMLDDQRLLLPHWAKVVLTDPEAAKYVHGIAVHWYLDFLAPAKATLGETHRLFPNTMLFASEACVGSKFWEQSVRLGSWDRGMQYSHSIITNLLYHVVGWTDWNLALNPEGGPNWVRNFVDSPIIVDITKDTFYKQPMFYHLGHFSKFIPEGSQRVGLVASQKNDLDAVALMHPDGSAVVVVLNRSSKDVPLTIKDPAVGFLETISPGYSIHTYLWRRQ

Potency, inactive:
CN1CCN(CCNC(=O)Nc2ccccc2C(F)(F)F)CC1 > 76.9 µM, COc1ccc(S(=O)(=O)NC2CCCC2)cc1Br > 76.9 µM, CCNc1ccc(C(=O)OCC)cc1NC(=O)c1cccc(N(C)C)c1 > 76.9 µM, O=C(CCc1nc(-c2ccccc2)no1)NCC1CCCO1 (stereo not given) > 76.9 µM, Cc1cccc(C)c1OCC(=O)NCc1nnc(SCC(=O)NC2CCCCC2)n1C > 76.9 µM, CC(=O)c1ccccc1OCC(O)CN1CCN(C(c2ccccc2)c2ccccc2)CC1 (stereo not given) > 76.9 µM, COc1cc(CNc2ccc3[nH]c(=O)[nH]c3c2)cc(Cl)c1OCC(=O)NC(C)(C)C > 76.9 µM, CCCCn1nnc(NC(=O)c2cc3ccccc3o2)n1 > 76.9 µM, COc1ccc(N(C(=O)Cn2nnc3ccccc32)C(C(=O)NCc2ccco2)c2cccnc2)cc1 (stereo not given) > 76.9 µM, CCn1c(COc2ccccc2C)nnc1SCC(=O)N1CCC(C)CC1 > 76.9 µM, O=C(CCS(=O)(=O)c1cccc2nsnc12)N1CCN(C(=O)c2ccco2)CC1 > 76.9 µM, Cc1oc(-c2ccccc2Cl)nc1CSCC(=O)N1CCCC1 > 76.9 µM, CCCc1nc(NCc2ccncc2)c2nnn(Cc3ccccc3F)c2n1 > 76.9 µM, CCc1nnc(NC(=O)CSc2nnc(-c3ccco3)n2C)s1 > 76.9 µM, CCN1/C(=C(\O)c2ccccc2)C(=O)c2ccccc2S1(=O)=O > 76.9 µM, COc1cc(/C=c2\s/c(=C(/C#N)C(=O)N3CCCC3)n(-c3ccccc3)c2=O)ccc1O > 76.9 µM, CS(=O)(=O)N1CCN(C(=O)c2cc(-c3cccs3)nc3ccccc23)CC1 > 76.9 µM, O=S(=O)(Nc1nc2ccccc2[nH]1)c1ccc(Cl)cc1 > 76.9 µM, CC(=O)c1cccc(NC(=O)NCCS(C)=O)c1 (stereo not given) > 76.9 µM, CC(=O)Nc1cnc(NC(=O)c2cccc(F)c2)cc1C > 76.9 µM, CCN1CCN(C(c2ccc(F)cc2)c2nnnn2Cc2cccs2)CC1 (stereo not given) > 76.9 µM, CCCCCCc1nc2ccccc2c(=O)n1N > 76.9 µM, CC(C)(C)NC(=O)CN1CCC(O)(c2ccccc2)CC1 > 76.9 µM, CC1CN(c2c3c(nc4ncnn24)CCCC3)CC(C)O1 (stereo not given) > 76.9 µM, CCC(C)(C(=O)NC1CCCCC1)N(C(=O)c1cnccn1)c1c(C)n(C)n(-c2ccccc2)c1=O (stereo not given) > 76.9 µM, COc1cc(NC(=O)N2CCOCC2)cc(OC)c1 > 76.9 µM, CCOC(=O)c1[nH]c(C)c(C)c1C > 76.9 µM, Cn1c(SCC(=O)N2CCN(c3ccccc3)CC2)nnc1-c1cc2ccccc2o1 > 76.9 µM, CCOC(=O)N1CCN(C(=O)C2CCCN(S(C)(=O)=O)C2)CC1 (stereo not given) > 76.9 µM, COC(=O)c1ccccc1NC(=O)Nc1cnccn1 > 76.9 µM, CCc1c(C(=O)Nc2ccc(OC)cc2)[nH]c(C)c1C(C)=O > 76.9 µM, O=C(CN(CC(=O)N1CCOCC1)S(=O)(=O)c1ccc(Br)s1)N1CCOCC1 > 76.9 µM, CCOC(=O)c1sc(NC(=O)CSc2ncn(-c3ccccc3)n2)nc1C > 76.9 µM, COC(=O)c1c(C)[nH]c(C)c1-c1ccccc1 > 76.9 µM, COc1ccc(OC)c(-c2[nH]nc3c2C(c2ccco2)C(C#N)=C(N)O3)c1 (stereo not given) > 76.9 µM, COc1ccc(OC)c(S(=O)(=O)N(C)CC(=O)Nc2ccc3c(c2)OCCO3)c1 > 76.9 µM, CC(=O)Nc1ccc(N/C=C/C(=O)c2ccco2)cc1 > 76.9 µM, COCCN(C(=O)CCC(=O)Nc1ccccn1)C(C(=O)NCCC(C)C)c1ccc(OC)cc1 (stereo not given) > 76.9 µM, Cc1onc(-c2c(Cl)cccc2Cl)c1C(=O)Nn1cnnc1 > 76.9 µM, COc1ccc(Cl)cc1N1C(=O)C2CCCN2C1c1sccc1C (stereo not given) > 76.9 µM, COc1ccc(N(CC(=O)NC2CCCC2)C(=O)c2ccc(N3CCCCC3)nc2)cc1 > 76.9 µM, OC(COCc1ccccc1)CN1CCN(c2ccccc2)CC1 (stereo not given) > 76.9 µM, COc1cccc(N=C2SC(C(=O)Nc3ccccc3F)CC(=O)N2C)c1 (stereo not given) > 76.9 µM, CCOC(=O)c1[nH]c2ccc(C)cc2c1N=C(C)N(C)C > 76.9 µM, CN1C(=O)N(S(=O)(=O)c2ccc(F)c(F)c2F)C(=O)C1(C)C > 76.9 µM, COc1ccc(NC(=O)c2ccccc2Cl)cc1NC(=O)CN1CCOCC1 > 76.9 µM, CCN1CCN(c2nc3c(c(=O)[nH]c(=O)n3C)n2CCCSc2ncccn2)CC1 > 76.9 µM, Cn1c(=O)cc(OCC(=O)NCc2cccnc2)c2ccccc21 > 76.9 µM, Cc1occc1C(=O)Nc1cccnc1 > 76.9 µM, CCOC(=O)c1ccc(CNC(=O)c2cc(C(C)(C)C)oc2C)o1 > 76.9 µM, CC(C)CCSc1nc2c(c(=O)[nH]c(=O)n2C)n1CCc1ccccc1 > 76.9 µM, CCCS(=O)(=O)N1CCCC(C(=O)NCCN2CCC(Cc3ccccc3)CC2)C1 (stereo not given) > 76.9 µM, CC(=O)NC(Cc1ccccc1)C(=O)N1CCN(C(=O)c2cccs2)CC1 (stereo not given) > 76.9 µM, Cc1ccc(C(=O)CC(C(=O)O)n2ccc(C)n2)cc1 (stereo not given) > 76.9 µM, C=C(C)CSc1nc(C)c(Cc2ccccc2)c(=O)[nH]1 > 76.9 µM, O=C(Cn1c(SCC(=O)NC2CCCC2)nnc1-c1ccncc1)Nc1ccc2c(c1)OCO2 > 76.9 µM, CCN(CC)S(=O)(=O)c1cccc(C(=O)N2CC(O)CC2C(=O)O)c1 (stereo not given) > 76.9 µM, COc1ccc(OC)c(C2N(c3cc(C)on3)C(=O)C3CCCN32)c1 (stereo not given) > 76.9 µM, Cn1c(=O)c2c(ncn2CC(=O)OCC(=O)NC2CCCc3ccccc32)n(C)c1=O (stereo not given) > 76.9 µM, CCOC(=O)c1cnc(C(C)(C)C)[nH]c1=O > 76.9 µM, CC1Cc2cc(-c3csc(NC(=O)Cc4cccs4)n3)ccc2N1S(C)(=O)=O (stereo not given) > 76.9 µM, Cc1ccc(C)c(Cc2c(C)nc3c(C(=O)N4CCOCC4)cnn3c2C)c1 > 76.9 µM, Cc1c(-c2ccccc2)sc(N)c1C(=O)N1CCOCC1 > 76.9 µM, O=C(CCCc1c[nH]c2ccccc12)N1CCOCC1 > 76.9 µM, Cc1c(NC(=O)C2CCCN2S(=O)(=O)c2ccc(Cl)cc2)c(=O)n(-c2ccccc2)n1C (stereo not given) > 76.9 µM, Cc1ccc(S(=O)(=O)N2CCCC2C(=O)NC2CCCCC2)cc1 (stereo not given) > 76.9 µM, CC(=O)N1CCc2cc(NS(=O)(=O)c3cccs3)ccc21 > 76.9 µM, COc1ccc2[nH]cc(C(=O)CN3CCN(C/C=C/c4ccccc4)CC3)c2c1 > 76.9 µM, Cc1nnc(N(C)C(=O)Cc2ccc3c(c2)OCO3)s1 > 76.9 µM, Cc1csc(NC(=O)CCn2c(=O)sc3ccccc32)n1 > 76.9 µM, COCCN(C(=O)CCCC(=O)Nc1ccccn1)C(C(=O)NC1CCCC1)c1ccc(C)cc1 (stereo not given) > 76.9 µM, Cc1sc2nc(SCC(=O)NCc3ccco3)n(-c3ccccc3)c(=O)c2c1C > 76.9 µM, COc1cccc(C2(O)CCN(C(=O)C3CCC3)CC2)c1 > 76.9 µM, O=C(Nc1cccnc1)c1ccccc1Oc1ccccc1 > 76.9 µM, CC(=O)C1=C(C)NC(=O)NC1c1cc(Br)ccc1OCC(N)=O (stereo not given) > 76.9 µM, Cn1c2ccccc2c2cnn(CC(=O)N3CCN(c4ncccn4)CC3)c(=O)c21 > 76.9 µM, CC1(C)CSC(=S)N1S(=O)(=O)c1ccccc1 > 76.9 µM, CCC1Oc2ccccc2N(CC(=O)Nc2ccc(OC)cc2OC)C1=O (stereo not given) > 76.9 µM, O=C(OCn1nnc2ccccc2c1=O)c1ccc2ccccc2n1 > 76.9 µM, CCOC(=O)C1CCN(C(=O)c2ccc(SC)cc2OC)CC1 > 76.9 µM, Cc1cccn2c(=O)c3cc(C(=O)NCc4cccnc4)c(=N)n(C(C)C)c3nc12 > 76.9 µM, Cc1cc2ncn(N)c2cc1C > 76.9 µM, Cn1c(=NC(=O)CSCC(=O)N2CCCC2)sc2ccccc21 > 76.9 µM, Cc1nn2c(CN(C(=O)c3ccco3)c3ccccc3)nnc2c2ccccc12 > 76.9 µM, CC(C)C(NS(=O)(=O)c1ccc(Br)s1)C(=O)O (stereo not given) > 76.9 µM, Cn1c(COc2ccccc2)nnc1SCc1cc(=O)[nH]c2ccccc12 > 76.9 µM, COc1cccc(N2CCN(CC(=O)NCc3cccs3)CC2)c1 > 76.9 µM, CCOc1ccc(C(=O)CN2CCN(S(=O)(=O)c3ccc(Cl)cc3)CC2)cc1 > 76.9 µM, O=C(O)c1ccccc1C(=O)N1CCN(c2cccc(Cl)c2)CC1 > 76.9 µM, Cc1ccc(-n2c(Cn3cnc4ccccc43)nnc2SCC(=O)O)cc1 > 76.9 µM
